From the supplement of paper PMC12889115
This is one part of the list. No stated cut-off is given here; in the data, active = 25% or less and inactive = the rest. Single values are uncertain, as repeats are few or missing.

What was measured:
[1] = tested on: Salmonella enterica serovar Typhimurium SL1344; test: bacterial growth OD600 after 18 h in MHB with 0.5 µg/mL polymyxin B; higher = more bacterial growth (less inhibition); conditions: 25 µM; polymyxin B 0.5 µg/mL; system: broth
Description: (§1)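 Secondary screen of the 553 primary hits at 25 µM. (i) S. Typhimurium SL1344 grown in Mueller-Hinton broth with 0.5 µg/mL polymyxin B, OD600 read after 18 h. (ii) SAFIRE assay: RAW 264.7 macrophages infected with S. Typhimurium sifB::gfp (MOI 30); compound added 2 h post-infection; cells fixed at 18 h; GFP-positive pixel fraction per macrophage imaged by confocal microscopy and expressed as % of DMSO control.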

[2] = tested on: Salmonella enterica serovar Typhimurium SL1344; test: intramacrophage bacterial GFP load (SAFIRE), percent of DMSO control (% of DMSO); higher = more intracellular bacteria (less inhibition); conditions: 25 µM; system: infected RAW 264.7 macrophages
Description: as §1
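Wherever bacterial growth OD600 after 18 h in MHB with 0.5 µg/mL polymyxin B is given: polymyxin B level opens the outer membrane while sparing the inner membrane, with novobiocin wells as reference growth inhibitor.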
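Wherever intramacrophage bacterial GFP load (SAFIRE), percent of DMSO control is given: compounds tested were the hits of an earlier 50 µM broth growth screen of a drug-like diversity library run with polymyxin B.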

For CC1CN(Cc2cccc3ncccc23)Cc2cc(Cl)ccc2O1 (configuration not stated), which “bacterial growth OD600” value [1] is on record?
Its value is 0.177.

And the “intramacrophage bacterial GFP load” value [2]?
The value was inactive: 55.2.

With O=C(c1ccc(=O)[nH]n1)N1CCc2onc(-c3cccc4ccccc34)c2C1 as the compound, how does the “bacterial growth OD600” value [1] read?
Its value is 0.176.

And the “intramacrophage bacterial GFP load” value [2]?
Its value is inactive: 131.

What does the source list for CC1CN(Cc2nc3ccccc3n2C)Cc2cc(Cl)ccc2O1 (configuration not stated)?
bacterial growth OD600 [1]: 0.002; intramacrophage bacterial GFP load [2]: inactive: 73.3

Which “bacterial growth OD600” value [1] does the source give for O=C(NCCC1=CCCCC1)C1CC12CCN(C(=O)CCc1ccc3c(c1)OCO3)CC2 (configuration not stated) here?
Its value is 0.52.

And the “intramacrophage bacterial GFP load” value [2]?
The value was active: 19.6.

What does the source list for CN(Cc1ccccc1)C1(C(=O)NC2CCS(=O)(=O)C2)Cc2ccccc2C1 (configuration not stated)?
bacterial growth OD600 [1]: 0.003; intramacrophage bacterial GFP load [2]: inactive: 123

For CSc1ncccc1C(=O)N1CCC(C(Cc2ccccc2)N(C)C(=O)c2ccsc2)CC1 (configuration not stated), which “bacterial growth OD600” value [1] is on record?
The value was 0.275.

What about the “intramacrophage bacterial GFP load” value [2] of the same compound?
Its value is inactive: 52.5.
